Some of the results follow. At the low end of the ranking, values are background and their order means little. Measured with an extract: partners may take part in the binding.
target: T1, HNF4alpha2 (COS-7 nuclear extract) (UniProt P41235); test: protein-binding microarray; conditions: COS-7 nuclear extract on double-stranded Agilent 4x180k PBM; binding buffer, salt, pH and temperature not given; high values mean tight binding; double strand, one strand shown; sequences stand for … in …GCCTAGGGAGATTAGAGTATCGGTCGA
T1 sequence: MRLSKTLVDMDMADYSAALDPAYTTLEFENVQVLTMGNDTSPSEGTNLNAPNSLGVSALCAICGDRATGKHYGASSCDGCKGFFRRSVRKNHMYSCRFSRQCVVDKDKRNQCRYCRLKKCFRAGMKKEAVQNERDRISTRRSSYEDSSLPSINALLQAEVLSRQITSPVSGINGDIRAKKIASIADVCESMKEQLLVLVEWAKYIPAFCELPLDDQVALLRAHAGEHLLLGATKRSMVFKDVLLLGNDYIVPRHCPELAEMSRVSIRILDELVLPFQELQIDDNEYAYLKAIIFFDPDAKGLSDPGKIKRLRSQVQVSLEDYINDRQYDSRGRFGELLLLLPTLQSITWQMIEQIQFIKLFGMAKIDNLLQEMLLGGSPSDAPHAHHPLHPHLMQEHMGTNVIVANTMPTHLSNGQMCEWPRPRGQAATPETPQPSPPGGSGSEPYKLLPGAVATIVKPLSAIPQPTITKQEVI

Sequence | binding signal (log2 normalized intensity)
CTGGAAATGTTTGTAGGGACTTTGACCCCT | 9.92
GCCAAACCAGGTCATGCATTCTGCTTACTA | -1.2
AGCCAGGCCAACACCAAGCAAGCTCTGCAA | -0.966
CTGGGGGCAAAGGTTCACTTTGGGGAAGTC | 3.85
AGAAAGGGGTCAGCAAAAATAGCCAAAATA | -1.06
CCCCCAACAGGGCTCCTGTTCAGCATAGTC | 2.42
TAGTGCAAGAATCCAAGAATTCGATTGTTT | -1.16
TCCGTCTATAAATACGCCTCGCCCGAGCTG | -1.19
TCAGCTGACATTGGTGGAATCTGAACTTTT | 3
TCCGGGGTCACGCGCGTGTGGATACGATGA | 1.76
ACAGGCCCTCTGATATTGGGTGAGTGTTAG | 1.25
ATGTTTTGTTATCTGTGCCACAGGTATTTC | 1.43
AGCATAAGGTTTCCATCAAGCCTTTGACTC | -0.717
GGAGGGGTGCGAAGGTCGAGGCCAGGGATT | 2.15
AGAGCGTCCCACCTGAGGCCAAGCAGCTGT | -1.17
GTGTTATCTCTGATGCCCTTTGGCCTTTCT | 6.59
AAAGAGCAGCTAGCTCCAGTTGGTTGCTAA | -1.15
ACCGGGATTTTGTTGGGGAACTTTGCCCGG | 4.45
TGGCCAATCCCAGGGTCAGAGGTCGCGAGG | 3.96
CAAACAATCCTCCCACCTCAGCATCCCAAG | 1.05
ATTAAAAGATAAAACATTGTACCTTCTACC | 0.398
GTCAGTGTCCAGCACACCTTTTTTTCATGC | -0.28
GGCGTCACCAACCAGCCCTCGAGTGAGGGG | 2.36
CCAGGTCTCCTCCACAGAGCACAGGATCCA | -1
TGGGTTCAAAGGTCAGAAAAAGCTGACGCC | 6.84

Sequence | binding signal (log2 normalized intensity)
CTGCACCATTCTTGTCCTTTCGGTGTGTGC | 2.1
CCTCAGTCCATCCTGTCTCACCAGACCAAG | -1.18
ACTTTGGAACTCAGTTAATGTACAGAGTAT | 0.375
CCTGTAGCTTCCGAAAGTATTTTTCTAGTC | 0.969
ATCTCACTCTTTGTTATTTATTGGCCAGTA | 1.9
ACTAGGCAGCTTGGGAGCAATTTAGCAGCA | -1.07
CTCCCTAGAAGAGTGAACCTAGTGGCTGTG | -0.774
GTGTGAATCTCCAACAAGGCAGGAGATTCC | -1.08
GCAGGAAGGAGCCTGCTTTGCTGAGGAACT | -1.17
GAGACACAAGGAAAAATGACCATCTCGTCA | -1.18
GGGGATTGTGTAACATCTAAGATTGGCCCT | 1.3
AGGTTGGCTAAAGATAACCTAGAAAGGAGA | -1.18
TCTGCATACCAGGTAAGTGACATGCTTGCT | -1.13
GGAAAGGCATACGTGCTTAATCCTGGTGCA | -0.117
GCCATGAGTTGGGGACAAAGTTCAAGGTCC | 5.61
GGTCCAGAGTTCACTGCAGGCTGGGGGCAG | 1.5
GTAGGGCAGAGGCCAGTTTGATCACAAGAC | -1.1
CACTCACAGGACTGCTGTGAGGATTGATTA | -1.06
CCTGAAAACTGGAGGCCGCGACAAGCGTCG | -1.15
GGCTGATAGGCAGAAGGGACTAGCCTTATC | -1.18
AGGAGGAGGTTCCTGGAACTCTGACCTTTG | 5.97
TTCTCTGGCAAATATCAGCATGGTATGTGG | 1.67
TAAACTTTTGATTGCTTAGGCTCTTGTTAT | -0.703
TGTGTTACGTCTGGTTTCTTATCTTTCTCA | 1.47
CTTGAGGCTCCGATAAACCCAGGCAATGAC | -0.813

Sequence | binding signal (log2 normalized intensity)
GGACTGGAAGGGAGAGATAAGAAAAACTGA | -1.2
CCGAGGTCTGATAAGCACCCTGCTCCAGCC | -1.21
GCTGTCACCTTTACCCCCACTCTCCGCTGG | 3.67
TTTGTTTGTGTAAGTGTGGGTTTAAGTAAG | 2.17
TGAGGGTTAAAGGAGATAATGGGTGTAAGA | 1.19
GCATCTGAGCAGATGTAAACATCATTCACG | -1.17
CTGCTTTCAGAGATGATAAGCCCTGAGTAG | -1.15
ACCCTGTGATGACCCCATACTTCAGCAATT | 2
GCAGGGTCATAGCTTTATCTCTCCCCCACC | 4.18
CGGCTGTCAAATCACTGAAGCGACCCCTCG | 2.78
GCCGGGAGCAGGGAGCGAGACGCTGAGCTT | -1.23
GATATGCGGCTGCAAATTCTGCATTTTTCT | -1.06
GTTATCTATTTGCATTCCATCAGTAGTATT | 1.63
TTCCTCTGGCATCTGGTCAGGGGTCAAGAA | 3.81
TGTAAACCTAGGTAGTGGACTCTAAGGCAA | 1.14
TCCCCCTGCTGGACACCGAGGTCCTGGGGC | 2.68
GGACTCTGGAACCATCAGGATTCCAGAGGA | 1.86
CTGCATTCCAGCCTGGGGCAATAGAGTAAG | -0.717
TTATTGAGCACTTTTGGTATGCAAGGCATG | 1.41
AGAACAGAATCCAGTCTGGTTAGTTTAAGC | -0.975
CTCCTTGGAAGTCGCCGTGAGGTTATTTGC | 0.962
TCAGAAGGAAAGTCTCCCTCCCTTTGATCC | 1.88
TGATCAAGAGGCTCTTCAATGCATTCCTGA | -1.09
GACAGGATATTTTGAGGGCTCAAAGGTTAC | 5.37
TCCGAAATAAACTGAGGGGTGGGGACCAGT | -0.988

Sequence | binding signal (log2 normalized intensity)
TTCTTTAAGCTATGTGGTGGAATGGAAAGA | 1.04
CTGATCCCAGCCCCACGGCTGAGCGGCCTT | 0.219
AGGCGCTGTGAAGCACATCCTGTTCTAGCT | -1.17
TGGTAGTTGCTGAAGGGCAGGGTTGGCTGT | 1.06
ACTCATTTCACATTGGTGCCCTTTGCCTTT | 3.97
TGGTTAGGTATTTTAAGTCACCAGATGAGA | 0.217
ACACAAACTCTGGAGTTTGCCCTTCACAAA | 3.5
AATCTGTGACTGAGCAGAGATTTGACCTAA | 2.68
GGACAAACTGAGGAGGACATACTCCTACCA | -1.16
AAGGGACAGGGGCCCAAGATAAAGGGACAG | -1.18
AGAAGAAAGGGGCTAGGGCAAAGATCAAAC | 2.39
AAGGACAAAGGTCATGTTTTCAAACAATGA | 5.44
CTGTGTCAGCAGAAGGCCCCAGGTGAACCA | 0.474
TTACTCTTAGAGATAATGGGGGAGCCACTG | -1.18
CTAACCAGCTCTATCAGTCTGGGTCCAGTC | 2.23
CTCATGGGCCTAAACATTCCCCTTTGTCTA | 1.69
AGGTCATGCATAGAAGTATGTCTGGGATTT | 1.44
CTGGTCCCCTGCACAGTCAAAAATTTGTGT | 0.967
TGTATGACCTTTGTTTTATTGTCATGCTGA | 2.75
AGCACTTCATCCTTATGTAACTGTAACTAT | 0.74
TAGATATCGCTCCAAGAGCCAACAGGAATT | -1.2
GATCTTTGGGCCATATTGACTAAACATTCT | 0.122
GTTACATCATAGTGTTTGCCTTATTTGAAC | 2.05
AGAGTGAGCAGCACTTTTGGAGTTTGACCT | 7.73
AGTGACATGCTTGCTTTTCAAACAGTGTGC | 1.44

Sequence | binding signal (log2 normalized intensity)
GTGTATGGGTATAGGCGCGCGTGTGTGTGT | 2.81
GGTGGAGAAAGGCAGAAGGTTCCAGGGAAC | -1.22
TCCAGCATTCTTTTCCCCATACCAGGCAGT | 2.37
TTACTGACTCCACAGTGGGGCAGATCACAA | -1.13
TTGGCTCTTATGTCCCTCCTGACCTTTGGA | 8.6
AAAAGGCAGTCCTTAGATCCACGGAGAATG | -0.624
TGTCAGGGAAGGCTAGCATTCCTGCACACC | -0.702
GCAGATGATCAAGAGGCTCTTCAATGCATT | -0.955
GTGAGTCAAGCACTTCTCACATCACGTCTC | -1.06
CAAATGAAAAGAATATCTCAGCAGCCTGGC | -0.732
CTGGCATAGCATGCCACGATGATTAGCTGA | -1.1
CACAGCTGGACTTTGGCTGCAAAATTTGAA | 3.04
GAAATTCTCAAAAGTTTTTCCCTTCTGTTA | 0.0227
GGTCACCTGGAAGCAGAAGGAGGAGGAGGT | -1.21
AGAATTCCTTCTTGCTTAGGATAGGGTCAG | 2.14
GAGGACAGTTGTGTTTGTTGACCACTCTTT | 1.84
GCAGTGAGAACAGGTTCATTCTTTAAGTGT | 1.36
GCCTCCCTGTGGGGGAGGTGCAGAGAGGGG | -0.929
CTTCCCTGGTCCTCAGGCCTTTGGACCCAG | 5.21
CTTCTCAACTAGGCCTGAAATTTGGCCTGC | 1
TGAATTCCAAAGGTTATTTTCTTTAAGCCT | 2.56
TATTTAAGGGTTCAGGGCAGAAGAGGTTAT | 1.27
GTGTATGATGACGCCACGCCGCTCTTTCTC | -0.853
AAACAGTACTGACATCTATCAACATATCTT | -0.574
CCCTTTGGCCTTTCTAATTATTTACAGGGA | 0.82

Sequence | binding signal (log2 normalized intensity)
CTGGAGAATCCTCTCTTGCTCAGGTGAGGC | -1.17
GGCAGACTCAAGATAGAGGGCTGCCAAAGC | -1.12
AAGAGCATGGCGCCAGGGAGTGATTGCCCT | 1.78
GCGCCGCGCCGGGGAAGCTGTTGGGCGCCG | 1.76
GAGGGGCCTGTCAGGCCCAGAAACACTGAA | -1.09
CTCTTTCAACTTTCAACATTTAACTTAACC | 1.24
CGCAGCAAGTTACACAAGTAGAATGAAAGC | -1.17
TAGGAATGTCATGCAGCTAAAAGCAGCATC | -1.3
CTGCACTGCAATGACAATAAATTATACCAA | -1.15
TTGGAGACGCAGAGAAGCACTGCAGTTTAA | -1.16
CATTAGGAGGAAAAAGAATGCCTCTTTCAA | -1.16
ATGGAGCTGGAGGGCAAAGGTCAGAGGCTG | 6.39
GGCCTGGCCACTCCGTTTGCTATGGCCTTT | 1.86
AACAAACATGAGGGACTGGGAAGAGAAGGT | -1.22
TCCAGCCCTGTCTCTCAGGTGTAACAGTTG | 1.21
ACTGCCCGCTGGCCTCCCCATCCTCATGAC | 2.7
TGAACTAACAATTCTTTCTGATAAGAGCAT | -1.08
GTCAATGGTAGAAAAGGAAATATCTTCGTA | -0.771
GGGGTCAGCAAAAATAGCCAAAATAAAGCA | -1.1
TTCCTGCTACAGAGCTCAGATTTCAAGGTG | -0.557

From publication PMC10726135
